Results: PubChem BioAssay AID1346428 (National Center for Advancing Translational Sciences (NCATS), 2018)
Screen size: about 48,000 compounds; about 1,200 (2.5%) were called active. About 2% were inconclusive and are not listed.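 Rule for the calls: active = activation of at least 60% and not above a set upper limit (about 1 call in 100 departs from these limits); inconclusive = activation of 40% to 60%, or above that upper limit; inactive = activation under 40%.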 The list shows a part of the results.

Target: Probable G-protein coupled receptor 32 (Homo sapiens) (UniProt O75388)
Sequence of UniProt O75388 (O75388 whole entry, looked up): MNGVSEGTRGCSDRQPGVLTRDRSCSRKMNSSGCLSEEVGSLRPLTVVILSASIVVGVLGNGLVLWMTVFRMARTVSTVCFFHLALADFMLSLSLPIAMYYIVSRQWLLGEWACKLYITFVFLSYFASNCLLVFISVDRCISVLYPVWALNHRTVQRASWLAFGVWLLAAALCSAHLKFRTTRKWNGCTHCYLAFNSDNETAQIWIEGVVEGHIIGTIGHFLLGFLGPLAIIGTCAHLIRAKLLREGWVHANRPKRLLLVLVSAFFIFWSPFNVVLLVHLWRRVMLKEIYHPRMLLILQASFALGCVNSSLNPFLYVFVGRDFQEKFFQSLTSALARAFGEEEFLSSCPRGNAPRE
Assay: qHTS for Agonists of Human Resolvin D1 Receptor DRV1; note: 0% is about no effect
Settings: CHO-K1 GPR32 beta-arrestin PathHunter luminescence, 90 min; at 76.9 µM; hits give high values; zero percent set by DMSO-only wells
Summary of the method: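 CHO-K1 cells stably expressing ProLink-tagged GPR32 and Enzyme Activator-tagged beta-arrestin were seeded at 2,500 cells/well overnight, exposed to compounds for 90 min at 37 °C, then read by beta-Gal complementation chemiluminescence after 1 h detection reagent.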

activation, active:
COc1ccc(CCNC(=O)CCc2c(C)nc3cc(-c4ccccc4)nn3c2C)cc1OC 69.7%

activation, inactive:
CC(=O)c1cccc(-n2c(=O)c3c4c(sc3n(Cc3ccccc3Cl)c2=O)CN(C(C)=O)CC4)c1 1.85%, COc1ccccc1CNC(=O)c1cn(C)c2ccc(S(=O)(=O)N3CCC(C)CC3)cc2c1=O 7.3%, Cc1c(F)cccc1NC(=O)C1CCCN1S(=O)(=O)c1ccc(F)cc1 (stereo not drawn) 2.92%, Cc1ccc2[nH]cc(C(c3ccccc3)c3cccs3)c2c1 (stereo not drawn) 10.6%, COc1cc(OC)c(NC(=O)c2ccc3nc(C(C)C)oc3c2)cc1Cl -7.31%, Cc1ccc(C(=O)Nc2cccc(C(=O)OCc3cc(=O)n4c5c(sc4n3)CCCC5)c2)cc1 -20%, Cc1ccc(NC(=O)C2CCCN(S(=O)(=O)c3cccc4cccnc34)C2)cc1Cl (stereo not drawn) -12.7%, CNS(=O)(=O)c1cn(CC(=O)Nc2ccc(F)cc2F)cc1S(=O)(=O)NC -8.42%, Cc1ccc(N2CC(c3nnc(Cc4ccc(Cl)cc4)o3)CC2=O)cc1 (stereo not drawn) -8.43%, CCCCNc1sc(S(=O)(=O)CC)nc1S(=O)(=O)c1ccc(C)cc1 -14.1%, CCc1ccccc1NC(=O)CSc1nnc(-c2cc(OC)c(OC)c(OC)c2)o1 8.57%, CC(=O)Nc1cc(C(=O)NCc2ccccc2)ccc1Sc1ccc(C)cc1 -3.2%, Cc1cccc(N2CCN(C(=O)Cn3c(=O)c4cccn4c4ccc(F)cc43)CC2C)c1 (stereo not drawn) -37.3%, CCN(c1ccc(OC)cc1)S(=O)(=O)c1c(C(=O)N2CCCCCC2)c(C)n(C)c1C -14.5%, Cc1cccc(C(=O)Nc2ccc(-c3nc4ccccc4s3)c(C)c2)c1 11.8%, Cc1ccc(CNC(=O)C(C(C)C)N2Cc3ccccc3C2=O)cc1 (stereo not drawn) -7.72%, O=C(NC1CCCCC1)c1ccc(Cn2c(SCc3cccc(F)c3)nc3cccnc32)cc1 -23.3%, CN(C(=O)CSc1cn(CC(=O)N2CCCCCC2)c2ccccc12)c1ccccc1 -12.9%, O=C(CCc1nc(-c2ccccc2F)no1)Nc1cccc(C(F)(F)F)c1 23.4%, Cc1ccc(CC(=O)N(Cc2nc(-c3ccc(C)cc3)no2)C(C)C)cc1 23.6%, Cc1ccc(C)c(N2CCN(C(=O)c3cccc(-n4c(C)nc5cccnc54)c3)CC2)c1 37.2%, Cc1nn(-c2ccccc2)c(OC(=O)c2ccc(Br)cc2)c1S(=O)(=O)c1ccccc1 -1.84%, CCOCCCNC(=O)c1cnc2sc(N3CCCCCC3)nn2c1=O -0.288%, CCOc1ccc(NC(=O)Cn2c(=O)n(CCc3ccccc3)c(=O)c3c4c(sc32)CN(C(C)=O)CC4)cc1 -10.1%, CCc1ccc(NC(=O)CSC2=Nc3ccccc3C3=NC(CCC(=O)NCc4ccccc4OC)C(=O)N23)cc1 (stereo not drawn) -15.5%, CCOc1ccc(OCC)c(NC(=O)c2cc(C)nc3c2c(C)nn3-c2cccc(Cl)c2C)c1 -23.5%, Cn1c(=O)c2sccc2n2c(CCCC(=O)Nc3ccc(F)cc3F)nnc12 -2.93%, COc1ccc2c(c1)c1c(c(=O)n(-c3ccccc3C)c(=O)n1Cc1ccccc1C)n2C 5.23%, COc1ccc(OC)c(NC(=O)CN2C(=O)CC(c3ccco3)Sc3ccccc32)c1 (stereo not drawn) -10.7%, O=C(COc1ccc(Cl)cc1)Nc1cc(-c2ccccc2)no1 -4.79%, C[C@@H]1C[C@H]2[C@@H]3CCC4=CC(=O)C=C[C@]4(C)[C@@]3(F)[C@@H](O)C[C@]2(C)[C@@]1(O)C(=O)CO -64.2%, CCn1c(CN2CCN(c3cccc(Cl)c3)CC2)nc2c1c(=O)[nH]c(=O)n2C 8.69%, Cc1cc2nn(-c3ccc(Cl)cc3)nc2cc1NC(=O)C(C)C 5.05%, COCCCNc1ncnc2c1c(-c1ccccc1)cn2-c1ccc(C)c(Cl)c1 -11.6%, O=C(O)COC(=O)Cc1ccccc1Nc1c(Cl)cccc1Cl -1.19%, COc1ccc(OC)c(CCNC(=O)c2cc3c(-c4ccccc4F)nn(C)c3s2)c1 21.7%, COc1ccc(C)cc1NS(=O)(=O)c1ccc2c(c1)[C@H]1C=CC[C@H]1[C@@H](c1cccc(Cl)c1)N2 -52.7%, Cc1cc(C)cc(NC(=O)CSCn2nnc3c(=O)[nH]c(Cc4ccc(F)cc4)nc32)c1 2.74%, CCOc1cc(C(=O)Nc2ccc3oc(-c4ccc(CC)cc4)nc3c2)cc(OCC)c1OCC -7.09%, COc1ccccc1CCNC(=O)CCn1c(=O)c2cccn2c2ccc(F)cc21 -17.3%, Clc1nccc2c1ccc1ccccc12 9.19%, Cc1noc(/C=C/c2ccco2)c1S(=O)(=O)N1CCC(C(=O)Nc2ccc(F)cc2F)CC1 -22.8%, Cc1cccc(OCc2ccc(-c3nc(C#N)c(N4CCC(C(N)=O)CC4)o3)o2)c1 -8.06%, CCc1cc2c(cc3c(=O)n(CCCC(=O)NCc4ccccc4Cl)nc(CC)n32)s1 -11.7%, CCOC(=O)c1cccc(NC(=O)Cn2c(=O)nc(-c3ccccc3)c3ccccc32)c1 1.59%, O=C(Nc1cc(C(F)(F)F)ccc1Cl)c1cc(S(=O)(=O)NCc2ccccc2)ccc1F -10.2%, CCCCN(Cc1ccccc1)C(=O)CN(C)S(=O)(=O)c1ccc2c(c1)c(=O)n(C)c(=O)n2C -10.7%, Cc1ccc(OCC(=O)Nc2ccc3nc(SCc4ccccc4)sc3c2)cc1 -3.37%, CCOC(=O)c1cccc(NC(=O)CC2C(=O)N(c3ccc(F)cc3)C(=O)N2C(C)C)c1 (stereo not drawn) -2.83%, COc1ccc(NC(=O)C(Cc2ccccc2)NS(=O)(=O)c2ccc(Br)s2)cc1OC (stereo not drawn) -6.17%, COCCCNC(=O)CC(c1cc(OC)c(OC)c(OC)c1)N1Cc2ccccc2C1=O (stereo not drawn) -7.07%, COc1ccc(N2CCN(S(=O)(=O)c3c(C)nc4scc(C)n4c3=O)CC2)cc1 22.5%, Cc1cc(C)c(NC(=O)CSc2nc(C)cc(C)c2C#N)c(C)c1 0.715%, Cc1ccc(C)c(NC(=O)N2CC=C(c3c[nH]c4ccccc34)CC2)c1 -24.5%, Cc1cccc(N(C)C(=O)C(Cc2ccccc2)NS(=O)(=O)c2cccc3nsnc23)c1 (stereo not drawn) -15.9%, O=C(CN1Cc2ccccc2C1=O)Nc1cc(F)ccc1F -6.91%, COc1ccc(Nc2ccc3cc(S(=O)(=O)N4CCCC4)ccc3n2)cc1Cl -10.6%, COc1ccccc1OCC(=O)N(Cc1ccc(N(C)C)cc1)CC1CCCO1 (stereo not drawn) -10.7%, CCOc1ccc(-n2c(SCC(=O)Nc3ccccc3OC)nc3c(oc4ccccc43)c2=O)cc1 -9.18%, Cc1ccc2oc(=O)c3cnn(CC(=O)N(C)c4ccc(F)cc4)c3c2c1 8.43%, CC(=O)c1ccc(NC(=O)C2CCN(S(=O)(=O)c3ccc4c(c3)CCCN4C(=O)C3CCC3)CC2)cc1 -7.14%, COc1ccc(N2CCN(C(=O)Cc3c(C(=O)O)c(C)cn3C)CC2)cc1 -4.29%, CCOC(=O)c1c(NC(=O)CCCOc2ccc(C(C)(C)C)cc2)sc2c1CCC2 -8.55%, COc1ccc(-n2nc3ccc(NC(=O)COc4ccc(C)c(C)c4)cc3n2)cc1 -10.6%, CCc1ccccc1NC(=O)CN(Cc1ccccc1)S(=O)(=O)c1ccc2nc(C)sc2c1 -8.93%, CCCSc1nc(=O)c2c(n1C)NC(=O)CC2c1cccc(F)c1F (stereo not drawn) 7.2%, O=C(Cn1c(-c2cccs2)cc2cc(Cl)ccc21)NCc1ccccc1 6.78%, Cc1cccc(NC(=O)Cn2cc(S(=O)(=O)c3ccc(F)cc3)c(=O)c3cc4c(cc32)OCO4)c1 -6.29%, CCc1cc(C(=O)Nc2cnn(Cc3ccc(F)cc3)c2)no1 9.14%, CCC(=O)N1CCc2cc(Br)cc(S(=O)(=O)NCCc3ccccc3Cl)c21 12.7%, CC(=O)c1cccc(NC(=O)c2cnn(-c3cccc(C)c3)c2-n2cccc2)c1 -9.28%, Cc1ccc(-c2c(C(=O)N3CCN(c4cccc(C)c4C)CC3)oc(=O)c3ccccc23)cc1 -0.878%, Cc1noc2ncnc(Nc3ccc(F)cc3)c12 9.54%, Cc1cccc(NC(=O)C(c2ccccc2)N2Cc3ccccc3C2=O)c1C (stereo not drawn) -13.2%, Cc1cccc(NC(=O)CSc2nnc(-c3cccs3)o2)c1 -11.7%, COc1ccccc1N1CCN(C(=O)CCn2cnc3onc(-c4ccc(F)cc4)c3c2=O)CC1 0.958%, COc1cccc2cc(-c3nnc(Nc4ccccc4C)s3)c(=O)oc12 -5.52%, COC(=O)c1sccc1S(=O)(=O)N(CC(=O)Nc1ccc(C)cc1)c1ccccc1 -9.92%, Cc1cc(C)cc(N2C(=O)CS(=O)(=O)C23C(=O)N(Cc2ccc(F)cc2)c2ccc(C)cc23)c1 (stereo not drawn) -9.68%, COc1ccc(NC(=O)Cn2c(=O)nc(-c3ccccc3)c3ccccc32)cc1OC -7.6%, Cc1cc(F)ccc1NC(=O)C1CCCN(c2nnc(-n3c(C)ccc3C)s2)C1 (stereo not drawn) 6.98%, CCOc1ccc(-c2cc3nc(C4CCN(C(=O)OC(C)(C)C)CC4)c(C(=O)Nc4ccc(C(=O)OC)cc4)cn3n2)cc1 -5.07%
